Reference: PubChem BioAssay AID1030 (National Center for Advancing Translational Sciences (NCATS), 2008)
Out of some 220,000 compounds screened, about 16,000 (7.3%) were called active. Inconclusive results, whose numbers are uncertain, are shown with a selection of clear calls. Calls follow the shape of the dose curve; as a rule, active = well fitted inhibition curve with a large enough effect (not every such curve was filed as active); inconclusive = small, poorly fitted or top-dose-only effect, or another doubt; inactive = no such curve, though single readings can be large or run the other way. A potency beside an inconclusive call is a rough fit, not a confirmed value.

What follows are compounds tested against Aldehyde dehydrogenase 1A1 (Homo sapiens) (UniProt P00352) (assay: qHTS Assay for Inhibitors of Aldehyde Dehydrogenase 1 (ALDH1A1)). Details: Purified ALDH1A1, NADH fluorescence, propionaldehyde substrate; series mostly up to 75.3 µM.
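For activity, negative = inhibition in this document: plate controls were no enzyme wells and a reference inhibitor.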
Potency is read from the fitted curve at half-maximal effect; tags tell the direction and shape of the fitted curve.

UniProt P00352, sequence (P00352 whole entry, looked up): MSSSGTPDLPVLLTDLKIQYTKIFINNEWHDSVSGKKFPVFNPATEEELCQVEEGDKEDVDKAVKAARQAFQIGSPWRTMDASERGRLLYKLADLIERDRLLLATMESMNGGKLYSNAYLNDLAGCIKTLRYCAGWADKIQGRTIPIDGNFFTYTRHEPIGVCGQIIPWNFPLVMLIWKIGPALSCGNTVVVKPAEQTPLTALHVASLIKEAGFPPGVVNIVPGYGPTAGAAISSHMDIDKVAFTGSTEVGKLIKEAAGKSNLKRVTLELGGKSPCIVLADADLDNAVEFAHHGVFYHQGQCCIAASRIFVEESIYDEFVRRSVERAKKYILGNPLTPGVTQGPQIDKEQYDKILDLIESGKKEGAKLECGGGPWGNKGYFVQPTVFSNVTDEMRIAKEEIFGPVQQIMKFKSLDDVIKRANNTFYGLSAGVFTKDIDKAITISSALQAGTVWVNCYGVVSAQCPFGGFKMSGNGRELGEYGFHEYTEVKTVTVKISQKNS

Potency, inactive:
Clc1ccc(CSc2ncnc3nc[nH]c23)cc1, CCc1ccccc1NC(=S)N(CCN(C)C)C(C)c1ccccn1 (stereo not drawn), Cn1nnnc1SCC(=O)Nc1ccccc1C(N)=O, CC(C)N=C(NS(=O)(=O)c1ccc(Br)cc1)c1ccc(Cl)cc1, Nc1cc(Br)c(N)c(Br)c1, Cc1ccc(NC2=C(Cl)C(=O)OC2OC(=O)c2ccccc2)c(C)c1 (stereo not drawn), COc1ccc(/C=C(\NC(=O)c2ccccc2Cl)C(=O)NCCCC(=O)O)cc1, Cc1nn(C)c(C)c1S(=O)(=O)NC1CCCc2ccccc21 (stereo not drawn), COc1ccc(F)cc1S(=O)(=O)Nc1cccc(C(=O)O)c1, Cc1cc(C(=O)COC(=O)c2ccc[nH]c2=O)c(C)n1-c1ccc(Br)cc1, Cc1ccc(C2C(C#N)=C(N)N(c3cccnc3)C3=C2C(=O)CCC3)c(C)c1 (stereo not drawn), O=C(NCCN1C(=O)S/C(=C\c2cccs2)C1=O)c1ccc(=O)[nH]c1, CCOc1ccccc1C(=O)NCc1ccco1

Potency, inconclusive:
CCCCC/C=C\C/C=C\C/C=C\C/C=C\CCCC(=O)O[C@H](COCCCCCCCCCCCCCCCC)COP(=O)([O-])OCC[N+](C)(C)C 37.7 µM [inhibitor, single point], COc1ccccc1N1CCN(CC(O)c2ccc3cc[nH]c3c2)CC1 (stereo not drawn) 35.5 µM [inhibitor, single point], O=C(Oc1ccc2[nH]cc(CCN3C(=O)c4ccccc4C3=O)c2c1)c1ccco1 39.8 µM [inhibitor, single point], CCNC(=O)COC(=O)c1ccc(S(=O)(=O)N2CCCCCC2)cc1 39.8 µM [inhibitor, single point], Fc1cccc(Cl)c1Cn1nnc2c(NCc3ccncc3)ncnc21 35.5 µM [inhibitor, single point], COc1cc(C=O)ccc1OC(=O)c1ccncc1 39.8 µM [inhibitor, single point], CC(C)CCNC(=O)CN(C(=O)Cn1nnc(-c2ccccc2F)n1)c1cccc2c1CCCC2 39.8 µM [inhibitor, single point], COc1ccc(-c2csc(-c3cc4ccccc4oc3=N)n2)cc1 37.7 µM [inhibitor, single point], CCCCn1c(=NC(=O)c2cccnc2)c(C(=O)OCC)cc2c(=O)n3ccccc3nc21 28.2 µM [inhibitor, partial curve], O=C(O)c1cc(-c2ccncc2)nc2ccc(F)cc12 39.8 µM [inhibitor, single point], CC(C)Nc1nc2ccccc2c(=O)[nH]1 39.8 µM [inhibitor, single point], CC(C)(C)c1nnc2sc(SCC(=O)N3CCCc4ccccc43)nn2c1=O 25.1 µM [inhibitor, partial curve], C/C(=C\C(=O)c1ccc(Br)cc1)NCc1ccc(C)cc1 39.8 µM [inhibitor, single point], COc1ccc(OCC(=O)Nn2c(-c3cccc(OC)c3)nc3ccccc3c2=O)cc1 39.8 µM [inhibitor, single point], CC(=O)c1cc2c(O)c(O)ccc2o1 35.5 µM [inhibitor, single point], CSc1nc(N(CCO)CCO)c2sc3nc(-c4ccco4)c4c(c3c2n1)CCC4 4.47 µM [inhibitor, partial curve], COC(=O)C1CCN(C(=O)C23CCC(C)(C(=O)O2)C3(C)C)CC1 (stereo not drawn) 31.6 µM [inhibitor, single point], Cc1ccc2[nH]c3c(=O)n(N)c(=O)[nH]c3c2c1 28.2 µM [inhibitor, partial curve], CCNC(=S)NNC(=O)c1cc(-c2ccccc2C)nc2ccccc12 22.4 µM [inhibitor, partial curve], Cn1nc(C(=O)N2CCc3ccccc3C2)c2ccccc2c1=O 18.9 µM [inhibitor, single point], COc1cc(NC(=O)c2cccs2)c(OC)cc1NC(=O)c1ccco1 35.5 µM [inhibitor, single point], Cc1nnc(SCC(=O)NCc2ccc(F)cc2)[nH]c1=O 39.8 µM [inhibitor, single point], CCOC(=O)c1c(-n2cccc2)sc2c1CCCC2=O 25.1 µM [inhibitor, partial curve], CC(=O)c1ccc(N2C(=O)[C@@H]3C(CCC(N)=O)NC4(C(=O)Nc5c4ccc(Cl)c5C)[C@@H]3C2=O)cc1 (stereo partly drawn) 39.8 µM [inhibitor, single point], COc1cc(C(=O)OCC(=O)Nc2c(F)cccc2F)cc(OC)c1C 39.8 µM [inhibitor, single point], CCOc1cc(CNc2ccc3c(c2)CCC3)ccc1O 39.8 µM [inhibitor, single point]

Potency, active:
COc1ccc(C2NC(=O)NC(O)(C(F)(F)F)C2C(=O)c2ccccc2)cc1OC (stereo not drawn) 31.6 µM, COc1ccccc1CC(NC(C)=O)C(=O)NC1CCN(c2nnnn2-c2ccccc2)CC1 (stereo not drawn) 5.62 µM, O=C(O)c1ccc(N=C2SCC(=O)N2Cc2ccccc2)cc1 12.6 µM, O=C(CSC1=NC(=O)C(Cc2ccccc2)C(=O)N1)Nc1ncc(Br)cc1Br (stereo not drawn) 39.8 µM, CCN(CC)c1ccc(/C=N/N2CCN(Cc3ccccc3)CC2)cc1 7.94 µM, COCCNC(=O)c1onc(CCl)c1C(=O)OC 28.2 µM, CN1c2ccsc2/C(=N/Nc2ccccc2)CS1(=O)=O 12.6 µM, Cc1ccc(C(=O)Nc2sc(C)c(-c3ccccc3)c2C(N)=O)cc1[N+](=O)[O-] 10 µM

activity, negative = inhibition, inactive:
CC(=O)c1ccc(C2C=CC(Oc3ccc(F)cc3C)C(CO)O2)cc1 (stereo not drawn) 0.381% [at 13.5 µM]
